Experiment [1] addresses T1, DB::GPR-1 (C. elegans) (UniProt Q95QJ7).
T1 sequence: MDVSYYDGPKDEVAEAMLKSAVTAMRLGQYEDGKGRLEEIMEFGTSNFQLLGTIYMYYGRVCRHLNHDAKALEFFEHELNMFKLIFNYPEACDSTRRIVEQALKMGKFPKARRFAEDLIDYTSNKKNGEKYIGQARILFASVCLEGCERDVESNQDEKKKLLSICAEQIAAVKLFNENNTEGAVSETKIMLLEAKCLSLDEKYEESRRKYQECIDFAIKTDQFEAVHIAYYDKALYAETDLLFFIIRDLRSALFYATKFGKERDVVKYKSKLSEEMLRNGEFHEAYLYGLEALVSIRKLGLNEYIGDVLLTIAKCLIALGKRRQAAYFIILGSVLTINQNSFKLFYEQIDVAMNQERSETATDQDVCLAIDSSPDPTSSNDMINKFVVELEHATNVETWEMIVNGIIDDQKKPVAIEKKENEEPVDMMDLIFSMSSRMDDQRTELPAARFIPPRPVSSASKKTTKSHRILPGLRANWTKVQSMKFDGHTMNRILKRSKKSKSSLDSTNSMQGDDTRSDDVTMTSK
Briefly: two-hybrid; reverse two-hybrid: DB::GPR-1 bait, mutagenised AD::LIN-5 609-821 prey, yeast strain MB004, selection on Sc -leu-trp + 5-FOA; single amino acid changes re-cloned and re-tested on Sc -leu-trp-his + 3-AT and Sc -leu-trp-ura plates.

The target of experiment [2] is T1, DB::GPR-1 (C. elegans). As to the kind of experiment: two-hybrid; DB::GPR-1 bait, AD::LIN-5 fragments prey, yeast strain Y8930; growth on Sc -leu-trp-his + 2 mM 3-AT and Sc -leu-trp-ade plates.
For experiment [3], the target named is T1, DB::GPR-1 (C. elegans). Briefly: two-hybrid; DB::GPR-1 bait, AD::LIN-5 full length (wild type and point mutants) prey, yeast strain MB004; Sc -leu-trp-his + 3-AT plates at 30°C.
Experiment [4] addresses T1, DB::GPR-1 (C. elegans). As to the kind of experiment: two-hybrid; DB::GPR-1 bait, AD::LIN-5 full length point mutant prey, yeast strain MB004; Sc -leu-trp-his + 3-AT plates at reduced temperature (20°C).

Positions count from the first letter of the chain named. Names may count otherwise. These are yes or no findings as the source states them, for the method shown. Some entries that bind do so weakly or less than the wild type. Tags and fused reporters may be left off the sequences shown.

B1: AD::LIN-5 fragment, amino acids 609–821 (domain or fragment, UniProt P45970 609-821)
chain: SRVDLIQRLEHEVADLREKESAEIKKSTWMGERIKIFQQAPMRGSRIRCGSPDSLPDFLADNGPTITEEELRAQLATFPRKSIAPSVDDNEFDKGTPIGFKSNMYDGRESICSLDFFDRSSLQRSSMRSESIQLASPSSAGEFKQPFTPSGVTKERVGVLTARNEKVKPHLKCSYASEVGSTNSPSADEENIKKSKKKNRRDSIFSAFSSKKQ
For the molecule B1, in the experiment with DB::GPR-1 (C. elegans) [1], the binding result is given as “binds”.

B2: AD::LIN-5 609–821 S662 altered to cysteine (domain or fragment, UniProt P45970 609-821)
chain: B1 chain with S54C
B2: in the experiment with DB::GPR-1 (C. elegans) [1], the binding entry is on record as “no binding”.

B3: AD::LIN-5 609–821 S662 altered to glycine (domain or fragment, UniProt P45970 609-821)
chain: B1 chain with S54G
In the case of B3, the binding entry in the experiment with DB::GPR-1 (C. elegans) [1] is recorded as “no binding”.

B4: AD::LIN-5 609–821 S662 altered to asparagine (domain or fragment, UniProt P45970 609-821)
chain: B1 chain with S54N
In the case of B4, the binding entry in the experiment with DB::GPR-1 (C. elegans) [1] is reported as “no binding”.

B5: AD::LIN-5 609–821 L663S (domain or fragment, UniProt P45970 609-821)
chain: B1 chain with L55S
In the case of B5, the binding result with DB::GPR-1 (C. elegans) [1] is “no binding”.

B6: AD::LIN-5 fragment 609–671 (domain or fragment, UniProt P45970 609-671)
chain: SRVDLIQRLEHEVADLREKESAEIKKSTWMGERIKIFQQAPMRGSRIRCGSPDSLPDFLADNG
Take B6: the binding entry in the experiment with DB::GPR-1 (C. elegans) [2] is listed as “no binding”.

B7: AD::LIN-5 full length (protein, UniProt P45970 1-821)
chain: MSVSTSVVKSMLQLTNYFGSNFTPKTETISSLAELWERHGSMIASMMSCDTREFGTADKFYEVIFRKIATTSLSFMTDSLEPKLAASGDSLEICKFYALFLEYMRKDHSGMLTRALEQASSENRVDTAVLLDMFLFFDNVYSESTADDWWACLRRDDEDQEASSGFRTPKRNNYSLTSLQTPTATARRLRTASSTARRSPIAEAVDSPTMKFMRSERELKQSKARIFGLEQMLGDLEDDKTKLSAENRTLKLSNSDLKSDIAKLKGIAEEAQFRAEELSCDLEAKKDEVHNILQQLNESRMTLRSEQRSLEEADIKKENLTAKLKTVTEDNGKLMKQARELRDLNDYEFARFRQQEQELTETLRATQDQMADLQEQLTGVEKIRASLKSENESLSASVEELSVASLRNKQDADNSKTMLSEELARFEETVDKLRQEKLEALSMANSRIDALRLEHSEREKMMKSTNARLQADLDEERNEKKRLMNLWNELNEKSLNVDKAVHKSNEEFQSMGSCLQNAKRQIEQLEVACKSKDDIIKFQEEQNKRAANLIKNEKAIRDQASAQFAEKLAILKNSLAEKENETVTLKENFASVVMKHKAELEEKELFLQSRVDLIQRLEHEVADLREKESAEIKKSTWMGERIKIFQQAPMRGSRIRCGSPDSLPDFLADNGPTITEEELRAQLATFPRKSIAPSVDDNEFDKGTPIGFKSNMYDGRESICSLDFFDRSSLQRSSMRSESIQLASPSSAGEFKQPFTPSGVTKERVGVLTARNEKVKPHLKCSYASEVGSTNSPSADEENIKKSKKKNRRDSIFSAFSSKKQ
On to B7, for which the binding entry with DB::GPR-1 (C. elegans) [3] was “binds”.

B8: AD::LIN-5 full length S659A (protein, UniProt P45970 1-821)
chain: B7 chain with S659A
In the case of B8, in the experiment with DB::GPR-1 (C. elegans) [3], the binding result was “binds”.

B9: AD::LIN-5 full length S662A (protein, UniProt P45970 1-821)
chain: B7 chain with S662A
With B9, the binding result with DB::GPR-1 (C. elegans) [3] was “binds”.

B10: AD::LIN-5 full length L663S (protein, UniProt P45970 1-821)
chain: B7 chain with L663S
Take B10: the binding entry in the experiment with DB::GPR-1 (C. elegans) [4] is given as “binds weakly”.

The values above are taken from publication PMC5053539.
